Results published in article PMC5679146.
Positions count from the first letter of the chain named. Names and notes keep the numbering of the source. No constants are given. Whether binding was seen depends on the method and setting. For some assays here: In cells and extracts the contact can be indirect. Some entries that bind do so weakly or less than the wild type. For some assays here: Sequences can lack the tags named with a protein. One block for each binder: values may come before it.

By UniProt entry, the sequences of proteins in these tests, tags left out.
UniProt P62259: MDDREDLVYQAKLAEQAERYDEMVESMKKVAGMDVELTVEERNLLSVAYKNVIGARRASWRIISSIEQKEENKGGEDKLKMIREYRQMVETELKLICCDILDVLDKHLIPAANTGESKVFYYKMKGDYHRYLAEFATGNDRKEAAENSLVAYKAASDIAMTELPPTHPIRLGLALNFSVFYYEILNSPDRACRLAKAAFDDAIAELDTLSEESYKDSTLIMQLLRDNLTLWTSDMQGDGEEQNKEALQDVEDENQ
UniProt P63101: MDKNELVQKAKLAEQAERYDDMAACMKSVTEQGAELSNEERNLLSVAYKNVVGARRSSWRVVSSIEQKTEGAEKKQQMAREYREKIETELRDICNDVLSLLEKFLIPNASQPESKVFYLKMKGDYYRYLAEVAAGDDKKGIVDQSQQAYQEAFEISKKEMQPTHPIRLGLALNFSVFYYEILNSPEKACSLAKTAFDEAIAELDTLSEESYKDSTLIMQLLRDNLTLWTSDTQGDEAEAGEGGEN

How the values were obtained:
HA–14-3-3γ (mouse) [1] = target: T1, HA–14-3-3γ (mouse) (UniProt P61982); assay: co-IP; HA-14-3-3γ with GFP-Best1-C1, -C2 or -C3 in COS7 cells; legend: IP anti-HA, blot anti-GFP; text: IP anti-GFP, blot anti-HA
T1 sequence: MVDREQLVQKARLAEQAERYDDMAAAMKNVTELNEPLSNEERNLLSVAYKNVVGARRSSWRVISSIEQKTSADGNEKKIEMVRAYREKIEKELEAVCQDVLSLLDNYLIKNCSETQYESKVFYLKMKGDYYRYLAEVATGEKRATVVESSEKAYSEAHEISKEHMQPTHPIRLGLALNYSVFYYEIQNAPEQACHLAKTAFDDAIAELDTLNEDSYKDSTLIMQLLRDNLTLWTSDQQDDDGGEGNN

Flag–14-3-3γ (mouse) = target: T2, Flag–14-3-3γ (mouse) (UniProt P61982); assay: co-IP; Flag-14-3-3γ and GFP-Best1 co-expressed in COS7 cells; lysis in 50 mM Tris-HCl pH 7.4, 150 mM NaCl, 5 mM EDTA, 1% NP-40; immunoprecipitated with anti-Flag, blotted with anti-GFP
T2 sequence: T1 sequence

HA–14-3-3η = target: T3, HA–14-3-3η (UniProt P68510); assay: co-IP; HA-tagged 14-3-3 isoform and GFP-Best1 (WT or S358A) co-expressed in COS7 cells; whole lysate immunoprecipitated with anti-HA, blotted with anti-GFP
T3 sequence: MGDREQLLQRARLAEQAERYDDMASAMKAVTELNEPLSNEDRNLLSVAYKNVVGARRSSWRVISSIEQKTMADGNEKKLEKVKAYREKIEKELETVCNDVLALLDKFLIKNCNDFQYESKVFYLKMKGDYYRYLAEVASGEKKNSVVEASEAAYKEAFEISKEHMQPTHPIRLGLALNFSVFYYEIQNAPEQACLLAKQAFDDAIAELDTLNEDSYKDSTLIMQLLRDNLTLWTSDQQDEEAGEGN

HA–14-3-3γ (mouse) [2] = target: T1, HA–14-3-3γ (mouse); assay: as above
HA–14-3-3ϵ = HA–14-3-3ϵ (UniProt P62259); assay: as above
HA–14-3-3β = target: T4, HA–14-3-3β (UniProt Q9CQV8); assay: as above
T4 sequence: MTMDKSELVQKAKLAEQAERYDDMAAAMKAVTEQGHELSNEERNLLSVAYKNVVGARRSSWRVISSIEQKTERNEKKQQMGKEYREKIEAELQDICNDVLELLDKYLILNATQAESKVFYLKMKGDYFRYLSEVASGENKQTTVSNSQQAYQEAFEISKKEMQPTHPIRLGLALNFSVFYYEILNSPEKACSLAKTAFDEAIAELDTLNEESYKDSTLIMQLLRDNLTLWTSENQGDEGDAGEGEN

HA–14-3-3σ = target: T5, HA–14-3-3σ (UniProt O70456); assay: as above
T5 sequence: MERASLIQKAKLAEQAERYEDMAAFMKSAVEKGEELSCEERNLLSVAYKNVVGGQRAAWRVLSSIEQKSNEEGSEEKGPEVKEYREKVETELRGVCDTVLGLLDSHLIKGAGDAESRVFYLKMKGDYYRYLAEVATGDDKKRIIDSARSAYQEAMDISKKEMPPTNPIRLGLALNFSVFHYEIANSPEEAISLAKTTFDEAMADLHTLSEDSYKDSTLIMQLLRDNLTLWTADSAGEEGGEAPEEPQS

HA–14-3-3τ = target: T6, HA–14-3-3τ (UniProt P68254); assay: as above
T6 sequence: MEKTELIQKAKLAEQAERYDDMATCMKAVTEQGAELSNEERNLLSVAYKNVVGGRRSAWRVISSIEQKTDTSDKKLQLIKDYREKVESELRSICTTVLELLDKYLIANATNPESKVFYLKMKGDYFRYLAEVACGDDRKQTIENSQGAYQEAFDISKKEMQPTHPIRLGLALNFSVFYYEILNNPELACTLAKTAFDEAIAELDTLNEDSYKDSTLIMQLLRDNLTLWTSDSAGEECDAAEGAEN

HA–14-3-3ζ = HA–14-3-3ζ (UniProt P63101); assay: as above
VN-14-3-3γ (mouse) = target: T7, VN-14-3-3γ (mouse) (UniProt P61982); assay: split reporter; BiFC with split Venus (VN173/VC155) in co-transfected HEK293T cells, fixed, confocal microscopy
T7 sequence: T1 sequence

[3] = target: T8, BD/mBest1 (full-length Best1 in pGBKT7) (mouse) (UniProt O88870); assay: two-hybrid; full-length cDNAs; BD/mBest1 (pGBKT7) and AD/14-3-3γ (pGADT7) co-transformed into yeast AH109; growth under TLH- conditions; called membrane Y2H in the results
T8 sequence: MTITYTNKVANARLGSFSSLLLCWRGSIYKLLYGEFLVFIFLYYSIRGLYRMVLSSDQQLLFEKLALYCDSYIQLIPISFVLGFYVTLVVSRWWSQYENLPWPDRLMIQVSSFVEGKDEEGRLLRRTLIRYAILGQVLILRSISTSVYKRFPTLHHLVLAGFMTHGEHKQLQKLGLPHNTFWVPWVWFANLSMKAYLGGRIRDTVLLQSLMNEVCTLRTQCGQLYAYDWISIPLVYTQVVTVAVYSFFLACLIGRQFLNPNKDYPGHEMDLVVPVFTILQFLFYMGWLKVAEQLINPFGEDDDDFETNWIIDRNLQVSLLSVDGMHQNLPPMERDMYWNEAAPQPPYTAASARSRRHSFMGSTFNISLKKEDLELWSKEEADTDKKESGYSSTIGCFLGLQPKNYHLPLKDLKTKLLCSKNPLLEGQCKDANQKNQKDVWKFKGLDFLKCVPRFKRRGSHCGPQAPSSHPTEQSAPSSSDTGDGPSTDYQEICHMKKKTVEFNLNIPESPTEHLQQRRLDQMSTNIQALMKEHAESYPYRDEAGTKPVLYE

B3: GFP–mBest1 (protein, UniProt O88870 1-551)
chain: T8 sequence
- binding (Flag–14-3-3γ (mouse)): binds
- binding (HA–14-3-3η): no binding
- binding (HA–14-3-3γ (mouse) [2]): binds
- binding (HA–14-3-3ϵ): no binding
- binding (HA–14-3-3β): no binding
- binding (HA–14-3-3σ): no binding
- binding (HA–14-3-3τ): no binding
- binding (HA–14-3-3ζ): no binding

B4: Best1-WT-VC (protein, UniProt O88870 1-551)
chain: T8 sequence
- binding (VN-14-3-3γ (mouse)): binds

B5: Best1-S358A-VC (protein, UniProt O88870 1-551)
chain: T8 sequence with S358A
- binding (VN-14-3-3γ (mouse)): no binding

Next, values leading:

- binding (HA–14-3-3γ (mouse) [1]): binds
B1: GFP-Best1-C1 (domain or fragment, UniProt O88870 292-380)
chain: EQLINPFGEDDDDFETNWIIDRNLQVSLLSVDGMHQNLPPMERDMYWNEAAPQPPYTAASARSRRHSFMGSTFNISLKKEDLELWSKEE

- binding (HA–14-3-3γ (mouse) [1]): no binding
B2: GFP-Best1-C2 (domain or fragment, UniProt O88870 381-470)
chain: ADTDKKESGYSSTIGCFLGLQPKNYHLPLKDLKTKLLCSKNPLLEGQCKDANQKNQKDVWKFKGLDFLKCVPRFKRRGSHCGPQAPSSHP

- binding (HA–14-3-3γ (mouse) [1]): no binding
B6: GFP-Best1-C3 (domain or fragment, UniProt O88870 471-551)
chain: TEQSAPSSSDTGDGPSTDYQEICHMKKKTVEFNLNIPESPTEHLQQRRLDQMSTNIQALMKEHAESYPYRDEAGTKPVLYE

- binding [3]: binds
B7: AD/14–3-3γ (full-length mouse 14–3-3γ in pGADT7) (protein, UniProt P61982 1-247)
chain: T1 sequence
